Among all 150,000 compounds or so, about 540 (0.36%) showed an effect of 50% or more. The list shows a part of the results.

In this experiment the test system is Plasmodium falciparum. As to the kind of experiment: Primary screen in NF54 nanoGlo assay, in single point, at 2uM, 72h; a lower Z score goes with more inhibition. The settings on record: timepoint 72 hour. The class given is functional, Erythrocyte.
As to `CN(C(=O)c1ccc(C(F)(F)F)nc1)[C@H]1CCCC[C@H]1C(F)(F)F`, the “% Inhibition” value was -11% and the Z score amounted to 1.38.
On to `CCc1csc(CNC(=O)c2cnn[nH]2)n1`, for which the “% Inhibition” value came to 15% and the Z score is recorded as -1.9.
In the case of `CCCCC(=O)N1CCN(C(=O)CCCC)c2ccc(O)cc2C1`, the “% Inhibition” value is given as -7% and the Z score is given as 0.8.
`CCc1c(NC(=O)COC)nnn1CCc1ccc(OC)cc1`: the “% Inhibition” value is reported as -16% and the Z score came out at 1.71.
For `CCn1cnnc1CN(C)Cc1c(C)nc2ccccn12`, the “% Inhibition” value was 2% and the Z score is on record as -0.25.
The corresponding values for `CN1CC(=O)N(Cc2nc(C3(c4ccc(F)cc4)CCCCC3)no2)C1=O` are -6% and 1.21.
Regarding `CCN(CCc1nc2c(C)cccc2[nH]1)C(=O)Cc1cc(C)no1`, the “% Inhibition” value stood at 11% and the Z score is -1.58.
Taken in the same sequence, the figures for `CC(C)(C)n1cncc1[C@H]1CCCN(C(=O)NCc2nccs2)C1` were -9% and 1.81.
With `COCCNC(=O)[C@H]1C[C@H](Oc2ccccc2)CN1Cc1ccc(OC(F)(F)F)cc1`, the “% Inhibition” value is -19% and the Z score was 3.56.
As for `CCCc1cc(C(=O)NCCN2CCOCC2)no1`, the “% Inhibition” value is -15% and the Z score was found to be 1.68.
As to `O=C(Nc1ccc(Cl)cc1)C1(F)C(F)(F)C(F)(F)C(F)(F)C(F)(F)C1(F)F`, the “% Inhibition” value is reported as -5% and the Z score is recorded as 0.86.
Taken in the same sequence, the figures for `NS(=O)(=O)c1ccc(CCNc2nc3ccccc3o2)cc1` were -3% and 0.4.
For the compound `COc1cc(C)ccc1OCc1nc(C(=O)NCc2nc(C)c[nH]2)co1`, the “% Inhibition” value stood at 12% and the Z score is -1.45.
Regarding `CN(Cc1cnn(C)c1)C[C@H]1CCCN1C(=O)OC(C)(C)C`, the “% Inhibition” value is -1% and the Z score was 0.12.
For the compound `O=C(NC1CCCCC1)c1nccnc1C(=O)N1CCCCC1`, the “% Inhibition” value is listed as -17% and the Z score worked out at 1.55.
`NC(=O)c1ccc(-n2ccnc2-c2cccc(-n3cccn3)c2)cc1Cl`: the “% Inhibition” value is on record as -7% and the Z score was 0.95.
Take `Cc1ccccc1N1C(=O)CN(S(=O)(=O)c2ccccc2)C[C@@]1(C)C(=O)NCc1ccc(F)cc1`: the “% Inhibition” value is reported as -11% and the Z score was determined as 1.34.
The corresponding values for `CC[C@H](NC(=O)CCn1c(C)cc(C)nc1=O)c1cc(C)ccn1` are -8% and 1.36.
In the case of `CCNC(=O)N1CCC(Cc2ccc(C(=O)N(C)CCc3c(C)nn(C)c3C)cc2)CC1`, the “% Inhibition” value is given as -16% and the Z score is listed as 2.01.
`Cc1ccc(-n2nnc(-c3nc(C)c(C(=O)NCCc4ccccc4)s3)c2C)cc1C`: the “% Inhibition” value is reported as -2% and the Z score was determined as 0.15.
The corresponding values for `Cc1nc(C)c(CNC(=O)N2CCC3CCCCC32)s1` (stereo unspecified) are 1% and -0.08.
`O=c1ccncn1CC1CCN(Cc2cc(F)cc(F)c2)CC1`: the “% Inhibition” value is -9% and the Z score is reported as 1.26.
Taken in the same sequence, the figures for `N#CCN(CC#N)C(=O)Cc1cccs1` were -1% and 0.14.

Broadly, the % Inhibition is the change of the read-out against control, counted positive when it falls.

Values taken from ChEMBL document CHEMBL4888484, “Replenishing the malaria drug discovery pipeline: Screening and hit evaluation of the MMV Hit Generation Library 1 (HGL1) against asexual blood stage Plasmodium falciparum ,using a nano luciferase reporter read-out” (2022).
